From PubChem BioAssay AID485294 (National Center for Advancing Translational Sciences (NCATS), 2010)
Out of some 370,000 compounds screened, about 150 (0.041%) were called active. The shares of active, inactive and inconclusive entries below differ from those in the screen. The call rests on the fitted dose curve; in most records, active means well fitted inhibition curve with a large enough effect; inconclusive means small, poorly fitted or top-dose-only effect; inactive means flat fitted curve, though single readings scatter. No potency is given beside an inconclusive call; the fits are too rough.

target: Beta-lactamase (Escherichia coli (strain K12)) (UniProt P00811); assay: qHTS Inhibitors of AmpC Beta-Lactamase (assay with detergent); details: AmpC hydrolysis of nitrocefin, absorbance 480 nm, 0.01% Triton; series mostly up to 114 µM; further: nearly all actives have a fitted effect of over 25% in size
In short: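 AmpC (5.3 nM in the dispensed reagent) in 20 mM phosphate pH 7.0 with 0.01% (detergent screen) or 0.0001% Triton X-100 was preincubated with compounds for 15 min at room temperature. Nitrocefin was then added from an 800 uM solution, and hydrolysis was followed at 480 nm.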
Potency means the concentration at half of the fitted maximal effect; tags describe the fitted curve by direction and shape.

UniProt P00811, sequence (P00811 whole entry, looked up): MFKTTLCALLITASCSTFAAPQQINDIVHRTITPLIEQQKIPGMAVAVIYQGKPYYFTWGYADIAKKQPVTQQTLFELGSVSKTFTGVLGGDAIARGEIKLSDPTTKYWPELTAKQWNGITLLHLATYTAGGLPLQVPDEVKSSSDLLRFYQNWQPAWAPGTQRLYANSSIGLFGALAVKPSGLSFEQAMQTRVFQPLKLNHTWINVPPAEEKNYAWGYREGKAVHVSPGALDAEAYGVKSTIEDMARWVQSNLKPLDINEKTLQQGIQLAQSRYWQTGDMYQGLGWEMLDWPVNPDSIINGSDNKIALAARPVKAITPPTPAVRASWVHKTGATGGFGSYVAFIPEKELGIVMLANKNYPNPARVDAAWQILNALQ

SMILES | Potency
Cc1cc(C)nc(NS(=O)(=O)c2ccc(NC(=O)Cn3c(=O)oc4ccccc43)cc2)n1 | inactive
C1=C(c2ccccc2)Nc2ccccc2N=C1c1ccccc1 | inconclusive [inhibitor, partial curve]
CN(C)CCN(Cc1ccco1)C(=O)c1cc2c(Cl)nc3ccccc3c2s1 | inactive
O=c1cc(/C=C/c2ccccc2)oc2ccccc12 | inactive
Cc1ccc(Cn2c(CCCNC(=O)c3ccco3)nc3ccccc32)cc1 | inactive
COc1ccccc1-n1nnnc1SCc1ccccc1 | inconclusive [inhibitor, partial curve]
Cc1ccc2c(c1)N(CCC(=O)NCCCOC(C)C)C(=O)C(C)O2 (stereo not drawn) | inactive
O=C(NCc1ccccc1)C(=O)NCC1OCCN1C(=O)c1cccs1 (stereo not drawn) | inconclusive [inhibitor, full curve]
CCOC(=O)c1c(N)n(C2CC(C)(C)NC(C)(C)C2)c2nc3ccccc3nc12 | inconclusive [inhibitor, full curve, poor fit]
CN1C[C@@H]2C(c3ccc(C(F)(F)F)cc3)C3(c4ccc(C#N)cc4)CC2(C3)[C@H]1c1ccccc1 (stereo partly drawn) | inactive
O=C(OCn1ncc(Cl)c(Cl)c1=O)c1ccc(C(F)(F)F)cc1 | inconclusive [inhibitor, partial curve, poor fit]
COc1ccc2oc(=O)c(C(=O)Nc3cccc(C(=O)O)c3)cc2c1 | inactive
CC(C)c1nc2oc3c(NCC4CCCO4)ncnc3c2c2c1CCC2 (stereo not drawn) | inactive
Cc1cc(C(=O)COC(=O)c2ccccc2O)c(C)n1Cc1cccs1 | inconclusive [inhibitor, single point]
CC(CCc1ccccc1)NS(=O)(=O)c1ccccc1 (stereo not drawn) | inactive
O=C(COC(=O)Cc1cccc(F)c1)NC(=O)NC1CCCCC1 | inconclusive [inhibitor, full curve, poor fit]
CCCCNC(=O)Cn1c2c(c(-c3ccccc3Cl)cc1=O)CCC2 | inconclusive [inhibitor, full curve, poor fit]
O=S(=O)(Cc1cccc(F)c1)c1c[nH]c2ccccc12 | inconclusive [inhibitor, full curve, poor fit]
CCCOc1ccccc1NC(=O)CC1Nc2ccccc2NC1=O (stereo not drawn) | inactive
O=C(Nc1ccc(F)cc1F)c1ccc2c(c1)CCN2S(=O)(=O)c1ccc(Cl)cc1 | inactive
CCOc1ccc(NC(=O)N(CCC(C)C)C(C)c2ccco2)cc1 (stereo not drawn) | inconclusive [inhibitor, full curve, poor fit]
CCOc1ccccc1NC(=O)NC1CCN(CC(=O)Nc2ccc3c(c2)OCCO3)CC1 | inconclusive [inhibitor, single point]
COC(=O)c1sccc1NC(=S)N1CCN(c2cc(C)ccc2C)CC1 | inconclusive [inhibitor, full curve, poor fit]

SMILES | Potency
CCN(CC)C(=O)Cn1cnc2sc(C(=O)N3CCN(c4ccc(F)cc4)CC3)c(C)c2c1=O | inconclusive [inhibitor, single point]
O=C(Nc1nc2ccc(S(=O)(=O)N3CCOCC3)cc2s1)c1cccs1 | inactive
COc1cc(NC(=O)c2cc3c(C)nc4ccccc4c3o2)cc(OC)c1OC | inconclusive [inhibitor, full curve, poor fit]
COc1ccc(CC(=O)N2CCN(c3ccccc3OC)CC2)cc1 | inconclusive [inhibitor, partial curve, poor fit]
CC(C)c1ccc(C2C3CSCC=C3C(C#N)=C(N)C2(C#N)C#N)cc1 (stereo not drawn) | inactive
CC(C)(C)C1CCc2c(sc(NC(=O)c3cccs3)c2C(=O)N2CCCCC2)C1 (stereo not drawn) | inconclusive [inhibitor, full curve, poor fit]
Cc1cc(C)c2nc(N3CCC(C(=O)NCCCN4CCCCC4)CC3)sc2c1 | inconclusive [inhibitor, full curve, poor fit]
O=C(/C=C/c1ccccc1)NC(=S)Nc1ccc2c3c(cccc13)CC2 | inconclusive [inhibitor, single point]
CCN(CC)c1ccc(NC(=O)c2sc3ccccc3c2Cl)cc1 | inactive
Cc1cc(-c2ccc(Cl)cc2)n2nc(N)nc2n1 | inconclusive [inhibitor, full curve]
CCOc1ccc(CCNC(=O)CN2C(=O)NC3(CCCCC3C)C2=O)cc1OCC (stereo not drawn) | inconclusive [inhibitor, full curve, poor fit]
O=C1CCc2cc(S(=O)(=O)N3CCN(c4cccc(C(F)(F)F)c4)CC3)ccc2N1 | inconclusive [inhibitor, partial curve, poor fit]
Cc1cc(C)c(S(=O)(=O)N2CCCOC2CNC(=O)C(=O)NCCC2=CCCCC2)c(C)c1 (stereo not drawn) | inconclusive [inhibitor, full curve, poor fit]
O=C(N/N=C/c1cc(Cl)cc([N+](=O)[O-])c1O)C(O)(c1ccccc1)c1ccccc1 | inconclusive [inhibitor, full curve, poor fit]
Clc1cccc(-c2ccc3ncnc(NCc4cccs4)c3c2)c1 | inconclusive [inhibitor, full curve]
O=[N+]([O-])c1ccc2nc(-c3ccccc3)n(OCc3ccc(Cl)cc3)c2c1 | inactive
O=C(N/N=C/c1ccoc1)c1ccc(Cl)cc1Cl | inconclusive [inhibitor, full curve, poor fit]
CCOCCCNC(=O)CC1Oc2ccc(C)cc2NC1=O (stereo not drawn) | inconclusive [inhibitor, full curve, poor fit]
C/C(=N\NC(=O)c1cc(C)oc1C)c1ccc(N2CCOCC2)cc1 | inconclusive [inhibitor, partial curve, poor fit]
CNC(=S)N(CCc1ccc(OC)c(OC)c1)Cc1cc2c(C)cc(C)cc2[nH]c1=O | inactive
Cc1cnccc1CN(C)Cc1cn(C)nc1-c1cccc(Cl)c1 | inactive
CN(C(=O)c1cnccn1)c1nnc(-c2cnccn2)s1 | inconclusive [inhibitor, partial curve, poor fit]
CCOC(=O)C1CCN(Cc2ccc3ccccc3c2)CC1 | inconclusive [inhibitor, partial curve, poor fit]

SMILES | Potency
CC(C)Oc1ccc(S(=O)(=O)N2CCOCC2)cc1NC(=O)C1=COCCO1 | inconclusive [inhibitor, full curve]
COc1ccc(C2OC34CCCCC3C(C#N)(C#N)C2(C#N)C(=N)O4)cc1 (stereo not drawn) | inactive
CCCN1CCN(CCCNC(=O)c2cc3c(=O)n(C)c4ccccc4c3n2C)CC1 | inconclusive [inhibitor, full curve, poor fit]
CCOc1cc(NC(=S)Nc2cccc(OC)c2)c(OCC)cc1NC(=O)C(C)C | inconclusive [inhibitor, full curve, poor fit]
O=c1ccsn1Cc1ccccc1 | inconclusive [inhibitor, full curve]
O=C(Cn1[nH]c(=O)c2ccccc2c1=O)OCC(=O)c1ccc(F)cc1 | inconclusive [inhibitor, single point]
O=C1CCc2cc(S(=O)(=O)N3CCC(C(=O)NCCC4=CCCCC4)CC3)ccc2N1 | inconclusive [inhibitor, full curve, poor fit]
Cc1csc2ncnc(NC3CCN(Cc4ccccc4)CC3)c12 | inactive
CC(C)(C)NS(=O)(=O)c1ccc(NC(=O)NC2CCCCC2)cc1 | inconclusive [inhibitor, full curve, poor fit]
CCCN1C(=O)/C(=C/c2ccc3c(c2)OCO3)NC1=S | inconclusive [inhibitor, single point]
Cn1c(=O)[nH]c(=O)c2c1nc(CN1CCN(Cc3ccccc3)CC1)n2CC(N)=O | inconclusive [inhibitor, full curve, poor fit]
CNCCc1c(C)n[nH]c1C | inconclusive [inhibitor, single point]
O=CN1CCN(C(=O)c2ccccc2F)CC1 | inconclusive [inhibitor, full curve, poor fit]
COc1ccccc1Nc1ncc(-c2cccs2)s1 | inconclusive [inhibitor, partial curve]
Cc1ccc(S(=O)(=O)NCCSc2nnnn2-c2ccc(C(N)=O)cc2)cc1 | inconclusive [inhibitor, full curve, poor fit]
Nc1ccncc1Cl | inconclusive [inhibitor, full curve]
O=C(CCCc1ccccc1)Nc1ccccc1[N+](=O)[O-] | inconclusive [inhibitor, partial curve, poor fit]
Cc1cc(OC(F)F)ccc1NC(=O)Nc1ccc([N+](=O)[O-])cc1 | inactive
CCCNc1ccc(S(=O)(=O)N(CC)CC)cn1 | inconclusive [inhibitor, full curve, poor fit]
CCCn1c2ccccc2c2cnn(CC(=O)OC)c(=O)c21 | inactive
CCOc1ccc(NC(=O)CN(C)C(=O)c2ccc3[nH]c4c(c3c2)CC(C)CC4)cc1OCC (stereo not drawn) | inconclusive [inhibitor, partial curve, poor fit]
Cc1c(Cl)cccc1-n1ccnc1SCC(=O)O | inconclusive [inhibitor, partial curve, poor fit]
